Laboratory results from PubChem BioAssay AID588579 (National Center for Advancing Translational Sciences (NCATS), 2011).
In all, about 400,000 compounds went through this assay and about 2,200 (0.55%) were called active. The inconclusive results got no clear call from the source; some entries with a clear call stand among them for comparison. Calls come from the whole dose curve; as a rule, active = well fitted inhibition curve with a large enough effect; inconclusive = small, poorly fitted or top-dose-only effect, or another doubt; inactive = no such curve, though single readings can be large or run the other way. Potencies beside an inconclusive call are fits to weak or partial responses and may not hold up.

These compounds were tested against DNA polymerase kappa (Homo sapiens) (UniProt Q9UBT6) (assay: qHTS for Inhibitors of Polymerase Kappa). Details: purified Pol kappa, fluorescent DNA synthesis assay, 10 min; series mostly up to 107 µM.
Sequence of UniProt Q9UBT6 (Q9UBT6 whole entry, looked up): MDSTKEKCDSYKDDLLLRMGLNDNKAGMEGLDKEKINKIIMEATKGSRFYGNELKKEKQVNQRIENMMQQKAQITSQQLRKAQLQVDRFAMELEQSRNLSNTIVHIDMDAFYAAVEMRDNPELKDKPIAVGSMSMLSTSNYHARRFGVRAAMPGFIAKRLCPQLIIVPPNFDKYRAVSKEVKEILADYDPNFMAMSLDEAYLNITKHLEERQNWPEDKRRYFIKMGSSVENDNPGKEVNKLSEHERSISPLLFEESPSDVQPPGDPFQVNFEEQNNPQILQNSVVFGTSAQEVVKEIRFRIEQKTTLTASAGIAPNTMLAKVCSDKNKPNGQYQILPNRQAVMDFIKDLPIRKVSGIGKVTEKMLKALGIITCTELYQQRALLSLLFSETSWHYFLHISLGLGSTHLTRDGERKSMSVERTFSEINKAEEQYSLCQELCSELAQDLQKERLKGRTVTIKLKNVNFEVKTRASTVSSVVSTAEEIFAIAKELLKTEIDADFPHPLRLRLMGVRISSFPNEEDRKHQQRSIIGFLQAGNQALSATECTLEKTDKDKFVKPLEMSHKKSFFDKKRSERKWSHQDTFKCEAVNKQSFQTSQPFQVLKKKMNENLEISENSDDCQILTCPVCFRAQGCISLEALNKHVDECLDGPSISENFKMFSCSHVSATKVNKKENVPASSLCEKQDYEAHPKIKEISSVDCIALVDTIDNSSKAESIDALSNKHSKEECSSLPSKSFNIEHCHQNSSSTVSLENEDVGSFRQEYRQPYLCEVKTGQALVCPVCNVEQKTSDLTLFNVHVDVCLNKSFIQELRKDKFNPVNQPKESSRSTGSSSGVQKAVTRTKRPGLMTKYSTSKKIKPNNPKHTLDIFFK
Method in brief: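 10 nM Pol kappa preincubated 15 min at room temperature with compounds, then reaction started with substrate at 50 nM final. Fluorescence read kinetically at 0 and 10 min; buffer-only wells served as negative control.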
Potency is the fitted concentration of half-maximal effect; tags give direction and shape of the fitted curve.

SMILES	Potency
O=C(CN(c1ccccc1)S(=O)(=O)c1ccccc1)NCCSCc1ccco1	active: 79.4 µM
CSc1nc(SCC(=O)O)c2sc3nc(-c4ccccc4)c4c(c3c2n1)CCC4	inconclusive: 79.4 µM [inhibitor, partial curve]
O=C(Nc1nnc(S(=O)(=O)N2CCc3ccccc32)s1)c1cccc(Cl)c1	inactive
COc1ccc(NC(=O)C2CCCN(c3nnc(C)c4c(C)n(-c5ccccc5)nc34)C2)cc1Cl (stereo not given)	inconclusive: 89.1 µM [inhibitor, single point]
COc1ccc(CCNc2c3ccccc3nc3ccccc23)cc1OC	inconclusive: 79.4 µM [inhibitor, partial curve, poor fit]
Cc1ccccc1/C=N/NC(=O)c1cccnc1	inactive
O=C(COC(=O)c1cccc(S(=O)(=O)N2CCN(c3ccccc3)CC2)c1)NCc1ccco1	active: 79.4 µM
O=C(Nc1ccc2oc(-c3cccnc3)nc2c1)c1ccc2c(c1)OCCO2	inconclusive: 79.4 µM [inhibitor, partial curve, poor fit]
O=C(O)c1cc(C(=O)O)c(C(=O)N(Cc2cccc(Oc3ccccc3)c2)[C@H]2CCCc3ccccc32)cc1C(=O)O	inconclusive: 16.8 µM [inhibitor, partial curve]
CCN1C(=O)/C(=C2/Sc3ccccc3N2CC)S/C1=N\c1ncn[nH]1	inactive
O=C(CSc1n[nH]c(=O)[nH]c1=O)Nc1c(Cl)cc(Cl)cc1Cl	inconclusive: 89.1 µM [inhibitor, single point]
O=c1ccc(C(F)(F)F)cn1Cc1cc(=O)n2cc(Br)ccc2n1	inconclusive: 79.4 µM [inhibitor, partial curve, poor fit]
Cc1c(NC(=O)c2ccccc2F)cccc1-c1nc2cccnc2s1	inconclusive: 89.1 µM [inhibitor, single point]
CCN(CC)C(=O)C1CCCN(c2ncnc3c2cnn3-c2ccc(Cl)cc2)C1 (stereo not given)	inconclusive: 89.1 µM [inhibitor, single point]
O=C1C2C3CCCC3=C3CCCC3C2C(=O)N1c1ccccc1Cl (stereo not given)	inconclusive: 89.1 µM [inhibitor, partial curve, poor fit]
FC(F)(F)c1ccccc1-c1nc(N2CCNCC2)c2ccccc2n1	inconclusive: 5.01 µM [inhibitor, partial curve, poor fit]
O=C(CCO)c1ccc(O)cc1	active: 8.91 µM
COc1cc(Cl)cc(C(c2c(C(=O)O)[nH]c3ccccc23)c2c(C(=O)O)[nH]c3ccccc23)c1O	inconclusive: 56.2 µM [inhibitor, partial curve, poor fit]
N#C/C(=C\c1ccc(-c2cc(Cl)ccc2Cl)o1)C(=O)Nc1ccccc1C(=O)O	inconclusive: 3.16 µM [inhibitor, full curve, poor fit]
COc1cccc(CNC(=O)CCNS(=O)(=O)c2ccc3c(c2)oc(=O)n3C)c1	inconclusive: 100 µM [inhibitor, single point]

SMILES	Potency
Cc1cc(=O)[nH]c(SCC(=O)NCc2ccco2)n1	active: 35.5 µM
O=C(Cc1ccc(S(=O)(=O)N2CCCC2)s1)NC1CCCCCC1	inconclusive: 89.1 µM [inhibitor, single point]
O=C(Nc1cccc(S(=O)(=O)NC2=NCCC2)c1)c1cc(-c2ccco2)nc2ccccc12	active: 31.6 µM
COc1cccc2c1Oc1ncccc1N(c1ccc(C(=O)NCc3cccc(C)c3)s1)C2	inconclusive: 100 µM [inhibitor, single point]
O=C(C=Cc1ccco1)c1ccco1	inconclusive: 100 µM [inhibitor, single point]
COCCCN=C(c1ccco1)n1c(=S)nc(-c2ccco2)n(CCCOC)c1=S	inconclusive: 89.1 µM [inhibitor, single point]
O=C(O)CCCN1C(=O)/C(=C/c2ccc(-c3nc4ccccc4s3)o2)SC1=S	active: 50.1 µM
Cc1ccccc1-c1nnc(SCC(=O)N2CCCCC2)o1	inconclusive: 89.1 µM [inhibitor, single point]
O=[N+]([O-])c1ccc(/C=N/N=C/c2ccc([N+](=O)[O-])o2)o1	inconclusive: 89.1 µM [inhibitor, single point]
CCCN(CCC)c1ccc(/C=C/c2sc3ccccc3[n+]2CCCCI)cc1	inconclusive: 56.2 µM [inhibitor, partial curve, poor fit]
COc1ccc(C2=NN(c3ccccc3)C(c3cn(CCC(=O)O)nc3-c3ccccc3)C2)cc1 (stereo not given)	inconclusive: 89.1 µM [inhibitor, partial curve, poor fit]
COc1ccc(-n2c(O)c(/C=N/Nc3nc(C)cc(C)n3)c3ccccc3c2=O)cc1OC	inconclusive: 89.1 µM [inhibitor, partial curve, poor fit]
O=C(CSc1ncnc2sc3c(c12)CCCC3)c1ccco1	inconclusive: 89.1 µM [inhibitor, single point]
CC(=O)c1ccc(NC(=O)CCc2c(C)nn(-c3ccc4nncn4n3)c2C)cc1	inactive
CC1(C)OC(=O)C(=Cc2ccc(-c3ccc(S(N)(=O)=O)cc3)o2)C(=O)O1	inconclusive: 100 µM [inhibitor, single point]
CCC1(OC(=O)CN(C)C)C(=O)OCc2c1cc1n(c2=O)Cc2cc3c(N)cccc3nc2-1 (stereo not given)	inconclusive: 79.4 µM [inhibitor, partial curve]
Cc1ccc(/C=C2\C(=N)N3N=C(CC(=O)N4CCCCC4)SC3=NC2=O)cc1	inconclusive: 56.2 µM [inhibitor, partial curve, poor fit]
COc1ccccc1-c1c(C)nn2c(N3CCC(C)CC3)cc(C)nc12	inconclusive: 89.1 µM [inhibitor, partial curve, poor fit]
CCSc1nnc(-c2ccc(S(=O)(=O)N3CCOCC3)cc2)n1C	inconclusive: 100 µM [inhibitor, single point]
C#CCn1cc(/C=N/NC(=O)COc2cccc3cccnc23)c2ccccc21	inconclusive: 89.1 µM [inhibitor, partial curve, poor fit]
